Measurements as given in the supplement of paper PMC3724861.
The other results are listed elsewhere or left out.

system: T1, Caupolican (Caup) homeodomain DNA-binding domain; test: PBM E-score (8-mer, recovered from the published 9-mer minima) (E-score (dimensionless, -0.5 to 0.5)); Drosophila protein; higher = stronger relative binding preference, active = 0.31 or more
T1 sequence: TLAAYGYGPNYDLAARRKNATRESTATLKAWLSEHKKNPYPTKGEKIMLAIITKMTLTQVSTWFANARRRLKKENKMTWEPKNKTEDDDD
Outline: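 Caup's homeodomain DNA-binding domain (residues 214-303) was made by in vitro transcription and translation and applied at 100 nM to custom-designed protein binding microarrays. Each value is an enrichment score that gives relative binding preference for a short DNA word, with higher meaning stronger. The 8-mer values were recovered from published 9-mer scores, each of which was the minimum of its two constituent 8-mer scores. A cutoff of 0.31 marks candidate sites.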

PBM E-score, ≥ -0.141:
ACCCGGCT

PBM E-score, inactive:
ACGCTCTG -0.0858
CCACCATA -0.0884
ATTTGATG 0.0738
AGCACACA 0.0184
CTGCACAA 0.0308
CAACCGAC 0.0158
AGGATCTC -0.0331
AAACACTC 0.134
AGGAGTCC -0.179
CTTCGTGA -0.0613
ATGGGTGC -0.00717
CCGAGTTA 0.0182
GACGGCCC -0.29
TCGGCACA -0.0477
ATCATCCG 0.0593
AAGCAGGC -0.15
CTGTTCCA 0.133
GACTGTTA 0.0636
GGATCGGA 0.0204
GAATGGAA 0.0108
TGCAAGAA -0.0555
CCTCCGAG -0.22
CCAGAGGA -0.169
AAATCAGG 0.0748
CCGAACGC -0.158
ACACGAGG 0.111
GATGGTCA -0.0573
AAGGGTAA 0.0256
CGAAATCG -0.109
CTGAACAA 0.229
CTTAGATC 0.0341
ACCAACCC -0.0241
CGCTCCCG -0.229
CTGTGCCA -0.0558
CGCGCCGC -0.215
CATGGACG 0.0426
AGAATTAT 0.108
ACAGCTGA -0.0257
ACGTCGGA -0.0828
CTAAGCTA -0.045
AAGTCACC 0.0213
AGGTTCAG -0.00097
CTTCCTCC -0.176
CTTAAAAA -0.0281
AACGCGTG -0.00042
GGAGCTGA -0.104
AGTCGGGC -0.154
ACTGCTCC -0.136
CGCAGGCC -0.227
GAAACGGA -0.00942
GGCCACAA -0.155
CGAAGCCC -0.228
AAGCAGTG -0.0544
ATATGAGG -0.0316
ATTGTCGC 0.0728
CGCGCGTC -0.108
CGCAGCGA -0.0492
ACGAAAAA 0.0766
CCTCTATA -0.0172
CCCCGCAG -0.269
CTCGAGGC -0.18
AAAGCTAG -0.0179
CGGCTAAG -0.116
GGGTCCCA -0.168
CCGGCACG -0.158
CGGCCAGA -0.189
ACTGTATG 0.133
GGTGACTA 0.0115
AACCCATT -0.0217
CCTGATGC -0.103
ACGGCTAG -0.161
ATACCCAG -0.0527
ATTGAACA 0.253
CCCGAGAA -0.101
AGGTGACG -0.103
AAGAGTCG -0.0381
ATATAACG 0.153
CGTACGGC -0.0888
CAATATAA 0.15
CGTGTAGA 0.29
CACGTCAC 0.0784
GGGATCCA -0.123
AATCGCGC -0.0555
AAAATTCG 0.0694
ACCCTTAT 0.0224
CCCCCGGA -0.248
GAAGCAAC -0.0181
CGCGGTGA -0.106
GCGAAATA 0.0256
AAAACATC 0.305
CAACAGAG 0.0219
AACGCGTC -0.0224
CCATTCCA -0.0346
CTGGGAGC -0.147
AGGAGGGC -0.17
CGGAGACA 0.0201
CCATACCC -0.155
GGCACCGA -0.0667
CTGTGGGC -0.0536
AAACTTCC -0.0959
GATATACC 0.121
GATGTGAA 0.139
TAGGAACA 0.191
GTTCCCCA -0.0823
CGTTTGAG -0.00713
CCACACGA -0.0269
TAAGCTCA -0.0929
AAGCTCAG -0.115
AAACGAAA 0.051
CATAGCGC 0.0107
CATAACGC -0.00796
GAACTTCC -0.0592
GACCGGGA -0.174
ATGGCAAT 0.00905
CTAGCTAC -0.00972
GATTTACC 0.0896
GTAATTGA 0.159
CCACCCGC -0.16
ACACCACT 0.204
GTTTGGGA 0.0152
CAAATTCA -0.046
AATGTCCA 0.251
CCTGACAC 0.142
ACGCCCCG -0.323
CGGCGCCA -0.155
CAGAGCCG -0.168
ACTAATGG -0.0216
GATAGTGC 0.00182
CATCCCAC -0.133
GATTCAAA 0.00644
GAGTTATC 0.0344
CACCTTTA -0.0576
AGTGTGTA 0.211
AAGAGGAG -0.112
ATACCTAG 0.133
CGAATCAG 0.0329

PBM E-score, ≥ 0.0547:
TCTGCACA

PBM E-score, ≥ 0.162:
AGATATCA

PBM E-score, active:
AACAAGCT 0.312

PBM E-score, ≥ -0.0483:
TGCGAGCA
